# Experimental data: ChEMBL document CHEMBL5308541, “MAIP: An Open-Source Tool to Enrich High-Throughput Screening Output and Identify Novel, Druglike Molecules with Antimalarial Activity” (ACS Med Chem Lett, 2023)
# Screen size: about 150,000 compounds; about 540 (0.36%) showed an effect of 50% or more. This is one part of the list.
# System: Plasmodium falciparum
# Assay: Primary screen in NF54 nanoGlo assay, in single point, at 2uM, 72h; a lower Z score goes with more inhibition
# Assay type: functional, Erythrocyte
# Settings: timepoint 72 hour
Compound,% Inhibition [%],Z score
CN(C)C1CCCN(CC=CCN2CCCC(N(C)C)C2)C1 (stereo unspecified),-10,1.67
Cc1oc2nc1C(=O)N[C@@H](C(C)C)c1nc(cs1)C(=O)NCCNCCCC(=O)N[C@H]2Cc1ccccc1,-4,0.65
c1cc2ncc(-c3ccc(NCC4CCOCC4)nc3)cn2n1,-1,0.32
Cc1nn(C(C)C)c(C)c1-c1cc(C(=O)NCCc2cn(CCC(C)C)c3ccccc23)n[nH]1,1,-0.17
CCn1cc(CNc2cccc3nc(C(F)F)sc23)cn1,0,0.04
Nc1nc(Nc2nc(N3CCCC3)cc(C(F)(F)F)n2)cc(C(F)(F)F)n1,-7,1.29
Cn1c(-c2ccccc2O)cc2ccccc21,5,-0.83
CCCN1CCN(C(C)CCCN(C(=O)C2CCCN(c3nccs3)C2)C2CC2)CC1 (stereo unspecified),-9,1.94
Cc1c(S(=O)(=O)N2CCC(N3CCCCC3)CC2)cc(-c2nc(-c3ccccc3)cs2)n1C,1,-0.24
FC(F)(F)CN1CCN(Cc2ccc(-c3cccnc3)cc2)CC1,1,-0.11
CS(=O)(=O)Nc1ccc2[nH]c(-c3cccs3)nc2c1,-6,1.07
Cc1nc(N)sc1-c1cc(-c2c[nH]c3ccccc23)c(C#N)c(N)n1,1,-0.12
CNc1nc(C)cc(NCCn2c(C)cc3ccccc32)n1,4,-0.75
Cc1nccc(NCCCc2nc3cc(F)ccc3[nH]2)n1,-4,0.63
NC(=O)c1ccc2nc(CN3CCCN(C4CCCCC4)CC3)cc(O)c2c1,-4,0.66
CN1CCc2ncnc(NCCc3cnc4ccccc4c3)c2C1,-11,1.64
Cc1cc(F)ccc1C1CCN(C(=O)Nc2cnc(N3CCNCC3)nc2)CC1,-4,0.71
N#CCc1cccc(C(=O)Nc2cnccc2N2CCCCC2)c1,-7,1.46
CN(C)c1ccc(C(N)=NOCc2ccc(F)c3cccnc23)cc1,1,-0.12
O=C(NC1CCN(c2nc(-c3cccnc3)cs2)CC1)c1ccc2ncsc2c1,-7,1.28
O=C(O)CCN(CCC(=O)O)c1ccc(/C=C/c2ccnc3ccccc23)cc1,-11,1.6
CCCCN1CCC(NC(=O)N(CC)Cc2ccc3[nH]ccc3c2)CC1,5,-0.83
O=C(CN1CCCN(Cc2ccc3cn[nH]c3c2)CC1)N1CCCC1,7,-1.19
